# Results from PubChem BioAssay AID434955 (Southern Research Specialized Biocontainment Screening …, 2010).
# This is one part of the list. Shown are side measurements of this screen, not its main read-out; they come without a call. The list favours compounds with an active or inconclusive main result.
# Assay: beta-lactam sensitization of Mtb H37Rv, H37Rv (AID 434955);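 further: growth measured after seven days incubation then overnight dye step; 0% = bacteria only wells and 100% = bacteria with antibiotic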
# Conditions: M. tuberculosis H37Rv growth with meropenem, percent inhibition; measured here: primary screen without meropenem; at 25 µM
row,Compound,inhibition [%]
1,O=C(NCCCN1CCOCC1)c1ccc2c(=O)n(CCc3ccccc3)c(=O)[nH]c2c1,8.29
2,Cc1[nH]nc2c1C(CCc1ccccc1)C(C#N)=C(N)O2 (stereo not drawn),7.65
3,COc1ccc(OC)c(CCNC(=O)CS(=O)(=O)Cc2nc(-c3ccccc3C)oc2C)c1,-10.5
4,Cc1cccc(-n2ncc3c2CCCC3NC(=O)C2=CC(=O)CC(C)(C)O2)c1C (stereo not drawn),-0.85
5,O=C(CNC(=O)c1ccc(Br)cc1)NCC(=O)OCc1ccc(Cl)cc1,25.4
6,COc1cc2c(cc1OC)C(c1ccccc1)CC2=O (stereo not drawn),14.2
7,NC(=O)c1ccccc1NC(=O)c1ccoc1,-8.5
8,CCCC/C(=N\NC(=O)c1ccc(Br)o1)c1ccccc1,-7.29
9,COC(=O)C1CCN(C(=O)COC(=O)c2oc3ccc(OC)cc3c2C)CC1,-0.54
10,CC1CCCCN1CCCNC(=O)CN1C(=O)c2cccnc2Oc2ccccc21 (stereo not drawn),-0.24
11,c1ccc(C2Oc3ccccc3C3CC(c4cccs4)=NN32)cc1 (stereo not drawn),-7.12
12,COc1cc(Cl)ccc1OCc1cc(C(=O)NC(C)Cc2cnccn2)no1 (stereo not drawn),6.35
13,CSc1nc(SCC(=O)NCc2ccco2)c2c3c(sc2n1)CN(C)CC3,2.16
14,CCCCSc1nnc(-c2cc(Br)ccc2N)c(=O)[nH]1,1.28
15,CCc1cc(=O)[nH]c(SCc2cccnc2)n1,-5.44
16,CCOC(=O)c1c(NC(C)=O)sc(/C(C)=N/Nc2ccc(C(=O)O)cc2)c1C,22.2
17,COc1ccc(C(=O)N(C)Cc2ccccn2)cc1OC1CCN(C(C)C)CC1,-1.9
18,Nc1n[nH]c2c1C1(CCCCC1)Cc1ccccc1-2,50.2
19,CC1CCCC(C)N1C(=O)CN1CCN(c2nc(-c3ccc(F)cc3)cs2)CC1 (stereo not drawn),20.9
20,Cc1ccc(C)c(OCCC(=O)OCC(=O)N2CCN(c3ccccc3)CC2)c1,14.1
21,COc1ccc(NC(=O)CSc2nc(N)c(C(=O)Nc3ccc(N(C)C)cc3)s2)cc1,15.8
22,O=C(c1ccc(Cl)cc1)N1CCN(C(=O)C2CCCCC2)CC1,4.49
23,Cc1cccc(-n2ncc3c2CCCC3NC(=O)CCCN2CCCCC2=O)c1C (stereo not drawn),-4.15

row,Compound,inhibition [%]
1,CCCOc1ccc(C(=O)N/N=C/c2ccc(-c3ccc(S(=O)(=O)Nc4ncccn4)cc3)o2)cc1,7.99
2,CCCCOC(=O)Sc1nc2ccccc2o1,0.14
3,COC(=O)c1ccc(C(=O)N2CCCC(Nc3ccc(F)c(F)c3)C2)cc1 (stereo not drawn),6.31
4,O=C(NCCN1C(=O)C2C3C=CC(C3)C2C1=O)N1CCOCC1 (stereo not drawn),4.88
5,CC1(c2cccs2)CC(c2cccs2)=C(C#N)C(=O)N1 (stereo not drawn),-7.02
6,Cc1[nH]c2ccccc2c1C(=O)COC(=O)Cn1c(C)nc2ccccc21,7.31
7,O=C(c1cccc(F)c1)N1CCN(c2cc(N3CCCCC3)c(F)cc2[N+](=O)[O-])CC1,63.5
8,COc1ccc(S(=O)(=O)N(CC(=O)NC2CCCC2)c2ccccc2OC)cc1,-4.51
9,O=S(=O)(Cc1cc(Cl)nc(-c2cccnc2)n1)c1ccccc1,6.25
10,Cc1ccc2nc(-c3ccncc3)cc(C(=O)N3CCOCC3)c2c1,5.53
11,COc1ccc(NC(C)C(=O)N/N=C/c2ccc([N+](=O)[O-])s2)cc1 (stereo not drawn),0.19
12,CCS(=O)(=O)n1nc(C(=O)N2CCOCC2)nc1N,-3.73
13,Cc1c(C(=O)Nc2nnc(SCc3ccccc3Cl)s2)cccc1[N+](=O)[O-],2.18
14,O=[N+]([O-])c1ccccc1S(=O)(=O)Nc1ccn(Cc2c(F)cccc2Cl)n1,-0.51
15,Cc1c([N+](=O)[O-])cc(C(=O)N2CCOCC2)cc1[N+](=O)[O-],-1.43
16,Cc1ccn(CCC(=O)N2CCc3ccccc32)n1,-4.55
17,Cc1cccc(NC(=O)Nc2ccccc2[N+](=O)[O-])n1,-7.42
18,Cc1ccc(NC(=O)/C(=C/c2ccc([N+](=O)[O-])cc2)NC(=O)c2ccccc2)cc1,0.78
19,CCCOc1ccc(-c2nc(N3CCN(CC)CC3)c3ccccc3n2)cc1,95.1
20,COc1ccc(-n2c(N)cc(=O)nc2SCC(=O)N2CCN(c3ccccc3)CC2)cc1,4.25
21,COC(=O)/C(=C\Nc1ccc(Cl)c2ccccc12)c1ncc(C(F)(F)F)cc1Cl,29.8
22,CCc1ccc(C(=O)COC(=O)c2ccccc2OC)cc1,82.5
23,COC1(c2cc(-c3ccccc3)nc(N)n2)CCCCC1,3.13

row,Compound,inhibition [%]
1,COc1ccccc1OCc1nc(-c2ccc([N+](=O)[O-])cc2)no1,10.5
2,CCOC(=O)c1c(C)[nH]c(C)c1C(=O)COC(=O)c1ccc(S(=O)(=O)N(CC)CC)cc1,-5.9
3,O=C(/C=C(\O)c1ccc(Cl)cc1)C(=O)NNC(=O)C(O)(c1ccccc1)c1ccccc1,38.1
4,O=C(COc1c(Br)cc(Br)c2cccnc12)N1CCc2ccccc2C1,76.4
5,O=C(O)C1CCN(S(=O)(=O)Cc2ccccc2)CC1,-0.77
6,O=C(NCc1nnc(SCC(=O)N2CCCC2)o1)c1ccc(F)cc1,-1.8
7,COc1cc(OC)cc(C(=O)Nc2nnc(SCC(=O)NCc3ccco3)s2)c1,9.03
8,COc1ccccc1C/C(N)=N/OC(=O)COc1ccc(C)cc1C,1.5
9,COc1ccc(NS(=O)(=O)NC(=O)c2c[nH]c3ccccc23)cc1,13.1
10,O=C(CSc1ccccc1)Nc1ccc2c(c1)OCCO2,31.4
11,COC(=O)[C@H](CC(C)C)NC(=O)N1CCN(c2cccc(C(F)(F)F)c2)CC1,1.6
12,CN(C)c1nc2ccccc2c(N)c1-c1ccccc1,4.05
13,COc1ccc(NC(=O)Nc2cccc(C)n2)c(OC)c1,7.92
14,Cc1ccccc1C1CC(c2ccc(Br)cc2)Nc2nc(N)nn21 (stereo not drawn),-2.71
15,CC(=O)Nc1cccc(C(=O)NC2CCCc3c2cnn3-c2cc(C)cc(C)c2)c1 (stereo not drawn),8.42
16,CC(C)(C)c1ccc(C(=O)Oc2ccc3c(c2)OCC3=O)cc1,18
17,CCOC(=O)N1CCN(S(=O)(=O)c2ccc3c4c(cccc24)C(=O)N3)CC1,3.9
18,COc1ccc(S(=O)(=O)N2CCN=C2SCc2cccc(C)c2)cc1,13.1
19,COC(=O)[C@H](CC(C)C)NC(=O)Nc1ccc2c(c1)OCCO2,-7.13
20,CCOC(=O)c1c(C)[nH]c(C(=O)OCc2ccccc2)c1C,10
21,Cc1ccccc1NC(=O)/C(C#N)=C\c1cc(C)n(-c2ccc(C(=O)O)cc2)c1C,16.3
22,CC(=O)C1=C(C)NC(SCC(=O)c2ccccc2)=C(C#N)C1CC(C)C (stereo not drawn),42.6
